The campaign covered roughly 420,000 compounds. About 50,000 (12%) were called active. The shares of active, inactive and inconclusive entries below differ from those in the screen. Calls follow the shape of the dose curve; as a rule, active = well fitted inhibition curve with a large enough effect; inconclusive = small, poorly fitted or top-dose-only effect; inactive = flat fitted curve, though single readings scatter. Potencies of inconclusive entries are left out as doubtful fits.
Assay: qHTS for Inhibitors of human tyrosyl-DNA phosphodiesterase 1 (TDP1): qHTS in cells in presence of CPT; also: nearly all actives have a fitted effect of over 55% in size
Conditions: chicken DT40 Tdp1-/-;hTDP1 cells + 20 nM CPT, ATP luminescence, 48 h; activity change, negative = growth inhibition: at 46.2 µM (top of the series) unless noted
Procedure, shortened: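 Chicken DT40 Tdp1-/- cells complemented with human TDP1, 400 cells/well, exposed to compounds plus 20 nM camptothecin for at least 48 h at 37 C; viability read as ATP content by CellTiter-Glo luminescence.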
% is scaled to controls: 0 for no effect and ±100 for the full control effect; potency is read from the fitted curve at half-maximal effect; tags tell the direction and shape of the fitted curve.

Row | Compound | Potency | activity change, negative = growth inhibition
1 | O=C(NCc1ccc2c(c1)CCN2C(=O)c1ccncc1)c1ccccc1F | inconclusive [inhibitor, single point] | 
2 | CCC1CN(CCC(=O)N2CCCN(C(=O)c3ccco3)CC2)Cc2cc(OC)ccc2O1 (centres undefined) |  | inactive: -8.58% [at 9.04 µM]
3 | CN(C)c1oc(-c2ccccc2Cl)nc1P(=O)(c1ccccc1)c1ccccc1 | inconclusive [inhibitor, partial curve, poor fit] | 
4 | COC(=O)c1c(-c2cccs2)csc1NC(=O)c1ccc(C(C)C)cc1 | inconclusive [inhibitor, single point] | 
5 | CC(C)(C)C1CCc2c(sc(NC(=O)CSc3nnc(-c4ccccc4)o3)c2C#N)C1 (centres undefined) | inconclusive [inhibitor, full curve, poor fit] | 
6 | COc1ccccc1CNc1ncnc2c1nnn2C | inactive | 
7 | Cc1cc(C)n2c(NC3CCCCC3)c(-c3ccc(F)cc3)nc2n1 | inconclusive [inhibitor, single point] | 
8 | Cc1cccc(COc2ccccc2C(=O)OCC(=O)N(C)c2c(N)n(Cc3ccccc3)c(=O)[nH]c2=O)c1 | inconclusive [inhibitor, single point] | 
9 | O=C(O)c1cc2ccccc2c2c1C(=O)c1ccccc1-2 | inactive | 
10 | C=CC[C@H](CC(=O)N(CCO)Cc1ccccc1)C(=O)N[C@H](COC(=O)[C@@H](CC=C)CC(=O)OC(C)(C)C)Cc1c[nH]c2ccccc12 | active: 23.1 µM | 
11 | COC(=O)c1ccccc1NC(=O)CCS(=O)(=O)c1nc(-c2ccc3c(c2)OCO3)cc(C(F)(F)F)n1 | active: 2.91 µM | 
12 | Nc1ncc([N+](=O)[O-])c(N2CCCCCC2)n1 | inconclusive [inhibitor, partial curve] | 
13 | O=c1c(Cl)c(N/N=C/c2ccc(Br)cc2)cnn1-c1ccccc1 | inconclusive [inhibitor, single point] | 
14 | Cn1c(=O)c2cc(NC(=S)NCc3ccccc3F)ccc2n1Cc1cccc(C(F)(F)F)c1 | active: 20.6 µM | 
15 | C[C@@H]1CN([C@@H](C)CO)S(=O)(=O)c2ccc(Br)cc2O[C@H]1CN(C)Cc1ccccc1F | active: 14.6 µM | 
16 | O=C1CC(NS(=O)(=O)c2cccs2)CN1c1ccccc1 (centres undefined) | inactive | 
17 | COc1ccccc1NC(=O)C(=O)NCC(c1cccnc1)N1CCc2ccccc2C1 (centres undefined) | inconclusive [inhibitor, single point] | 
18 | CN1C(=O)CSC1=Nc1cccc(Cl)c1 | inactive | 
19 | CCOC(=O)N1CCN(C(=O)CCc2cc(OC)c(OC)c(OC)c2)CC1 | inactive | 
20 | O=C(NCc1ccc(F)cc1)c1ccc2oc(=O)n(Cc3ccccc3)c2c1 | inconclusive [inhibitor, single point] | 
21 | Cc1ccc(C(C(=O)NCC2CCCO2)N(C(=O)c2snc(C(N)=O)c2N)c2ccc3c(c2)OCCO3)cc1 (centres undefined) | active: 23.1 µM | 
22 | Cc1c(C(=O)OC(C)C)sc(NC(=O)c2cccnc2)c1C#N | inconclusive [inhibitor, partial curve] | 

Row | Compound | Potency | activity change, negative = growth inhibition
23 | O=C(Nc1ccc2c(c1)OCO2)c1cnn2c1NC(c1ccco1)CC2C(F)(F)F (centres undefined) | inconclusive [inhibitor, single point] | 
24 | COc1ccc(-c2nn(-c3ccccc3)cc2/C=C/C(=O)OCC(=O)Nc2ccccc2C#N)cc1 | active: 7.31 µM | 
25 | O=C(NCc1ccccc1F)Nc1nnc([C@H]2C[C@H](O)[C@@H](CO)O2)s1 |  | inconclusive: -39.3% [inhibitor]
26 | Nc1ncnc2c1nc(-c1ccccc1)n2C1OC(CO)C(O)C1O (centres undefined) | inactive | 
27 | COC(=O)c1ccc(NC(=O)CCc2c(C)nn(-c3ccc(N4CCCCC4)nn3)c2C)cc1 | active: 23.1 µM | 
28 | CC(C)(C)c1ccc(S(=O)(=O)N2CCC(CO)(CC3CCCCO3)CC2)cc1 (centres undefined) | inconclusive [inhibitor, single point] | 
29 | O=C1CCCc2nc(N3CCc4ccccc43)ncc21 | inactive | 
30 | COc1ccc(/C=N/N2CCOCC2)cc1COc1ccc(Cl)cc1 | inconclusive [inhibitor, single point] | 
31 | CN1CCC(N2CCN(C3CN(Cc4cn(Cc5cccc(C(F)(F)F)c5)nn4)S(=O)(=O)C3)CC2)CC1 (centres undefined) | inactive | 
32 | CCN(CC(=O)NCc1ccc(Cl)cc1)S(=O)(=O)c1ccc(NC(C)=O)cc1 | inconclusive [inhibitor, partial curve] | 
33 | CCC1(c2ccc(F)cc2)NC(=O)N(CC(=O)Nc2ccccc2Cl)C1=O (centres undefined) | inactive | 
34 | CC(C)(C)OC(=O)N1CCC(C(=O)Nc2ccc(C(=O)NCCc3ccccc3)cc2)CC1 | inconclusive [inhibitor, partial curve] | 
35 | CC(=O)Nc1nonc1-c1nnc(SCc2ccccc2)n1C | inconclusive [inhibitor, single point] | 
36 | S=c1[nH]nc(Cc2ccc(Br)cc2)n1/N=C/c1ccc(Cl)cc1 | inconclusive [inhibitor, single point] | 
37 | CC(C)Cn1c(-c2ccco2)csc1=Nc1cccnc1 | inconclusive [inhibitor, single point] | 
38 | CC1(C)Cc2c(cnn2-c2ccc(F)cc2)C(NC(=O)CCN2CCCC2=O)C1 (centres undefined) | active: 18.4 µM | 
39 | CC(=O)N1CCN(c2ccc(NC(=O)c3ccc(Cl)c(Cl)c3)cc2)CC1 | inconclusive [inhibitor, single point] | 
40 | COc1ccc(NC(=O)CN2CCN(c3ccc(F)cc3)CC2)cc1Cl | inconclusive [inhibitor, single point] | 
41 | Cc1cccc2sc(N(CCN(C)C)C(=O)/C=C/c3cccs3)nc12 | active: 16.4 µM | 
42 | CCn1c(CN2CCN(c3ccc(OC)cc3)CC2)nc2cc(S(=O)(=O)N(C)C)ccc21 | active: 20.6 µM | 
43 | COCCCN1CC23C=CC(O2)C(C(=O)O)C3C1=O (centres undefined) | inconclusive [inhibitor, single point] | 
44 | CC(NC(=O)c1ccco1)C12CC3CC(CC(C3)C1)C2 (centres undefined) | inconclusive [inhibitor, partial curve] | 

Source: PubChem BioAssay AID686979 (National Center for Advancing Translational Sciences (NCATS), 2013)
